± gives the standard deviation of the averaged measurements. Some of the results follow.
Tested on: PfAP2-LT AP2 domain (GST-tagged)
Test: gcPBM binding intensity (ln(normalized median fluorescence intensity)); higher = stronger DNA binding
Procedure, shortened: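 GST-tagged P. falciparum DNA-binding domains, expressed in E. coli (about 25 μg on average), were applied for 1 h to an Agilent 4 × 180k array of primer-extended double-stranded 36-bp intergenic genomic probes plus negative controls. The binding buffer was 1× PBS with 1% milk, 0.2 mg/ml BSA, 0.5% salmon testes DNA and 0.03% Triton X-100. Bound protein was detected with Alexa488 anti-GST antibody and scanned at 488 nm. Binding intensity is the highest Masliner-normalised natural-log median intensity across replicate spots of either probe orientation.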

Sequence | gcPBM binding intensity (ln)
CATATAAAAATATGCACACACAGGAATACAAACATA [CACACA_site684] | 9.75 ± 0.38
AAACGTACATAATACACACACATGTATCCATATAAA [CACACA_site5173] | 9.42 ± 0.42
ATTGTTCTATGATTTGTACACACTTTTTTTTAAAAT [CACACA_site2825] | 9.06 ± 0.4
ATATATATTTTTTAATGTACTTATATTTTTATAATA [XGTACX_site2103] | 8.64 ± 0.31
ATACAATAAAGGTGTACACATATATGATGCAAGATG [CACACA_site5897] | 9.29 ± 0.52
AGCAATTGTGTTTTCACACATAAATATATTCCTCAC [CACACA_site5021] | 8.96 ± 0.42
AATTAAACTCACACCACACACAAAAAAAAAAAAAAA [CACACA_site693] | 9.31 ± 0.4
GGTCATATTTTTTGCACACAAAAAAAAATATAAAAT [CACACA_site3381] | 9.13 ± 0.42
ATATATATATATATATGTACACATATATGTGTTTGT [XGTACX_site62] | 10.1
TTAATAAACCTTAGATGTACAGTTATATATAAAATA [XGTACX_site6681] | 8.54 ± 0.41
TGAACTCACGAGCACACACACACATATATATATATA [CACACA_site8248] | 10.3 ± 0.25
AGTGTAGGTATATAAACACACATACAGATATATAAT [CACACA_site4900] | 9.34 ± 0.52
GTATGTATGTATGTATGTACTTATGTAGTCTTAGTT [XGTACX_site1710] | 9.35 ± 0.32
TATTCAGGTCCAATGGTGCAATATATTTTTGTAATA [GTGCAC_site9607] | 8.7 ± 0.29
TAAAAAATAAAATGGACACACACGTTCAAATTTAGA [CACACA_site2083] | 9.05 ± 0.42
AATTATAATTAATAGAGTACTGAATATATATATATA [XGTACX_site8683] | 8.99 ± 0.26
TTCCCTTTTTTTATTTGTACTTATCTTTTAAATAAT [XGTACX_site2497] | 8.82 ± 0.54
AGCATTTTTCATTTTGCACACATGTTTTATGTGTAT [CACACA_site3454] | 9.48 ± 0.24
TAAAATATAATAAAATGTACACGCATGCAATAGAAT [XGTACX_site7434] | 9.41 ± 0.35

Sequence | gcPBM binding intensity (ln)
GCTTCTTAGTATACTTTATAAAATATATATTAAATA [XGTACX_negctrl_site57] | 8.39 ± 0.35
ATATCGGGTGCATTAACACACATTTATTTGAATAAA [CACACA_site2350] | 8.89 ± 0.47
ATATTAAATATAATTTGTACGCATTTTTTTTTTTTT [XGTACX_site1910] | 8.69 ± 0.49
ATATATCATAATAGAGGTACACATATTATATATATA [XGTACX_site782] | 8.85 ± 0.48
TTTATAAATATATATACACACACATATATATTATAT [CACACA_site8099] | 9.18 ± 0.4
ATATACATATATATGGGTACATATATTAATATATAT [XGTACX_site8358] | 8.87 ± 0.48
TCTGTTAATATTTATACACACATATTTATTTATATA [CACACA_site6658] | 8.94 ± 0.44
TTAACATATTATAAGTGTACATATTTATAAACAAGA [XGTACX_site8806] | 8.71 ± 0.39
ATTTTGAAAAATAAAAGTACATATAATATATCTACA [XGTACX_site7185] | 8.37 ± 0.45
TTTAGATATATGGTAGTGCATAATAAAAATATAGCC [GTGCAC_site9449] | 8.68 ± 0.42
CACTCCATATTATACACACACACAAATGAAAAAAAT [CACACA_site3019] | 9.73 ± 0.33
AATATTACAAAATATTGTCCGTACAAATTTTTAATA [XGTACX_site8129] | 8.43 ± 0.42
AAAAAAAAAAAAAAGACACACATATATATATATATA [CACACA_site633] | 10.1 ± 0.13
GATGATAAAATATGTACACACAGTTTATACATTTTG [CACACA_site4055] | 9.07 ± 0.51
TTTTTTTTTTTAAAATGTACACGTAATTACATATAT [XGTACX_site752] | 8.84 ± 0.49
TGATGGTTACGTTTATGTACACATTACAGTTAGTAT [XGTACX_site998] | 8.99 ± 0.36
TTAAAAATTATATAAGTGCATTAATATTTAGAACAA [GTGCAC_site9773] | 8.39 ± 0.41
ACTACATTATTGCATTGTACTTTTTTTTTTTTTTTA [XGTACX_site4605] | 9.03 ± 0.47
GAGTTAATATTTAAAAGTACAAGATGAATGTAAAAA [XGTACX_site5810] | 8.79 ± 0.6

Sequence | gcPBM binding intensity (ln)
AAAATATATTAAGGCACACACATACATATATATATA [CACACA_site3723] | 9.65 ± 0.27
TATATTGAATGCAAAAGTACATTTGTGTAAATTTAT [XGTACX_site7611] | 8.75 ± 0.41
TTTAAATTATGAAATTGTACATATAAAAATATTTTA [XGTACX_site4796] | 8.13 ± 0.42
TTTTTTTTATTAGTGTGTACGCATTTATTTATACAT [XGTACX_site1599] | 9.2 ± 0.49
TATATATTATTTAAAACACACAAAAAAAAAAATTAT [CACACA_site89] | 8.67 ± 0.45
TACTTACCAAAATACACACACACACCCAATATATAA [CACACA_site1871] | 10.1 ± 0.12
TTAAAAATATATGAATGTACATATATTTATATATAT [XGTACX_site77] | 8.53 ± 0.35
TACAGGAATATTTTTACACACTAAAAATTATAAAAT [CACACA_site1649] | 8.71 ± 0.46
TGATTGAGTAAAATGGGTACATATACACTATTACAT [XGTACX_site5232] | 8.78 ± 0.5
TTTTTTACTTTTGAGACATTTCATATTTTTATTCAC [GTGCAC_negctrl_site730] | 8.72 ± 0.49
AAAGGTTCACATTATATAGTTATGTAATATATATGT [CACACA_negctrl_site542] | 8.77 ± 0.4
TTTTTTCTCTGTGGCTGTACTTTGAAGATATTTTAT [XGTACX_site8243] | 8.87 ± 0.47
ATATTGTATTTATGTACACACATTTTTGGAATATGA [CACACA_site4861] | 9.07 ± 0.3
TCTTTTAAACAGTACACACACACATCTATATTTATA [CACACA_site6559] | 9.41 ± 0.31
CTCTGTTGTCTTAGTTGTACAATAGAAAAAAATAAT [XGTACX_site7043] | 8.65 ± 0.38
ATATATATATATATATGTACATATTGTATTAATTAT [XGTACX_site1919] | 9.67 ± 0.014
TTTTCATATTATAGTGCACACAAAAATATATATATG [CACACA_site8929] | 8.91 ± 0.41
TTATTTAGTATATTATGTACATACAATGCCTGGGAA [XGTACX_site4578] | 8.69 ± 0.33
TAAAATATATATATGTGTACATAACATATAATTTTT [XGTACX_site1725] | 8.6 ± 0.46

Reference: the supplement of paper PMC11417369
